Data taken from paper PMC12040169 (PLOS Biology, 2025).
Some of the results follow.

Test system: T1, C. trachomatis L2/434/Bu expressing GFP (CTL2-GFP)
T1 construct: L2/434/Bu GFP intracellular growth in HeLa cells
Parameters: species or system HeLa; C. trachomatis total inclusion area by high-content imaging, normalised to DMSO
Conditions: total inclusion area; 28.5 h, 10 µM; inhibitor
Method in brief: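 Host cell viability was gauged from Hoechst-stained nuclei counts, while chlamydial growth was taken from total inclusion area and inclusion number per well. Cells were fixed and imaged by high-content microscopy once bulk GFP and resorufin fluorescence had been measured.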

SMILES	% of control remaining
COc1ccc(S(=O)(=O)Nc2nnc(C)s2)cc1 [CBK045543]	52.2063
Cc1cccc(-c2nnc(-c3cccc(NC(=O)COc4ccccc4)c3)o2)c1 [CBK269659]	79.6423
O=C(Cn1ncc2cccn2c1=O)Nc1cccc(F)c1 [CBK283702]	78.8522
O=C(O)C1(Oc2ccc3ncccc3c2)CCN(C2CCCCC2)CC1 [CBK306591]	43.2452
Cc1ccc2[nH]c(/C(C#N)=C\c3cn(CC(=O)Nc4ccccc4)c4ccccc34)nc2c1 [CBK267612]	82.008
C=C(C)Cn1c(SCC(=O)O)nnc1-c1ccccc1 [CBK262737]	117.157
O=C1CC(SCCc2nc3ccccc3[nH]2)C(=O)N1c1ccc(F)cc1 (stereo not shown) [CBK267500]	108.77
COc1ccc(CSc2nnc(SCc3ccc(C(=O)O)cc3)s2)cc1 [CBK300477]	107.332
CS(=O)(=O)Nc1nnc(C(F)(F)F)s1 [CBK038168]	90.9333
CCOC(=O)C1CCN(C(=O)c2ccc(OC)cc2)CC1 [CBK074220]	99.9955
CC1CCN(S(=O)(=O)c2ccc(C(=O)N3CCCCC3C(=O)O)cc2)CC1 (stereo not shown) [CBK297094]	102.616
C#CCNC(=O)CC[C@H]1CNC(=O)[C@@H]2[C@@H](CCN2CC(C)(C)C)N1C [CBK289035]	95.9476
CN1CCN(c2ccc3ccn(S(=O)(=O)c4ccc([N+](=O)[O-])cc4)c3n2)CC1 [CBK070757C]	24.311
CC(=O)N[C@H]1CC[C@]2(C)CCC([C@H](C)C(=O)N3CCCCC3)[C@H](O)[C@H]2[C@@H]1C (stereo partly shown) [CBK289439]	135.982
Oc1cccc(/C=N/n2c(S)nnc2-c2ccncc2)c1 [CBK265300]	92.1647
Cc1cc(NC(=O)Cc2ccsc2)c2ccccc2n1 [CBK116259]	92.5474
Cc1csc2ncc(C(=O)Nc3cc(C(F)(F)F)ccc3Cl)c(=O)n12 [CBK287465]	61.2923
CC(=O)NCCC1CCN(c2nc(C(C)(C)C)nc3c2cnn3C)CC1 [CBK307364]	99.7305
OC(CN1CCC(Oc2ccccc2F)CC1)c1cccs1 (stereo not shown) [CBK281433]	83.7758
COCCN1CC[C@@H]2[C@@H](C/C=C/Cc3ccccc3OCC(=O)N2C)C1 [CBK292134]	69.9085
COc1ccccc1CNCC1CCN(C(=O)OC(C)(C)C)CC1 [CBK056710]	99.7611
Cc1noc(C)c1CN1CCN(CC(CC(=O)Nc2ccc(F)cc2)C(=O)O)CC1 (stereo not shown) [CBK286821]	100.103
CS(=O)(=O)NC1CCCN(Cc2nc(N)c3ccccc3n2)C1 (stereo not shown) [CBK304889]	104.977
O=C(NC(=O)N1CCOCC1)c1csnn1 [CBK005561]	101.034
Cc1ccc(/C=C/C(=O)O)cc1S(=O)(=O)NC1CCS(=O)(=O)C1 (stereo not shown) [CBK264409]	109.791
Cc1ccncc1C(=O)N1CCc2ccccc21 [CBK200400]	88.2609
COc1ccc(C2NC(C(=O)O)CS2)c(OC)c1 (stereo not shown) [CBK260908]	83.0392

SMILES	% of control remaining
CS(=O)(=O)N/N=C/c1cccc(Br)c1 [CBK026427]	56.9396
Cc1nc(C(=O)N(CCO)Cc2ccccc2)cs1 [CBK304810]	28.1939
Cc1nc2c(C(=O)N3CCNC(=O)C3)cnn2c(C)c1Cc1ccccc1 [CBK162197]	102.579
COc1ccc(C(C)C)cc1-c1cn2ccnc2c(N2CCN(c3ccncc3)CC2)n1 [CBK066217]	41.6867
NC1=NC(=O)C(CC(=O)Nc2ccccc2Cl)S1 (stereo not shown) [CBK039145]	90.3371
COc1ccc2c(c1)cc(C(=O)NCc1cncn1CC(C)C)n2C [CBK307193]	111.214
COc1ccccc1-c1nccnc1OCCn1cnc2c1c(=O)n(C)c(=O)n2C [CBK106816]	79.4088
Cc1c(C(C)NCC(O)COc2ccc(C#N)cc2)cnn1C (stereo not shown) [CBK304881]	67.7214
O=C(NCCSCc1ccc(Cl)cc1Cl)c1ccc(Br)cc1 [CBK264733]	88.7557
O=C(Nc1ccccc1[N+](=O)[O-])c1cc(S(=O)(=O)Nc2ccccn2)ccc1Cl [CBK263229]	79.4679
CCC1(CC)OC(NC23CC4CC(CC(O)(C4)C2)C3)=NC1=O [CBK107938]	94.9866
O=C(Cc1c[nH]cn1)Nc1cccc2cc[nH]c12 [CBK160097]	90.9471
COc1ccc(-n2cnnn2)cc1 [CBK001946]	28.6575
O=C(OCCC1SC(NC2CC3C=CC2C3)=NC1=O)c1cc(C(F)(F)F)cc(C(F)(F)F)c1 (stereo not shown) [CBK056857T]	86.7138
NC(=O)NS(=O)(=O)c1ccc(NC(=S)NC(=O)c2ccco2)cc1 [CBK261068]	98.7831
CC(C)c1ccc(/C=C/C(=O)NC2CC2)cc1 [CBK149640]	49.7303
O=C(O)c1ccc(NS(=O)(=O)c2ccc(NC(=O)c3ccccc3Cl)cc2)cc1 [CBK265184]	87.7644
C=CCSC1=N/C(=C\c2ccc(C(=O)O)cc2)C(=O)S1 [CBK265057]	107.736
Cc1ccc(S(=O)(=O)c2cc3c(=O)n4ccccc4nc3n(CCN3CCOCC3)c2=N)cc1 [CBK265637]	70.6785
CN(Cc1nc(-c2ccccc2)no1)C(=O)C1CCOC1 (stereo not shown) [CBK306755]	60.215
Cn1cc(-c2nc(C3COCCN3C(=O)c3cccc(Cl)c3)no2)cn1 (stereo not shown) [CBK305443]	65.0691
C=CCNc1nccnc1-c1ccncc1 [CBK036845]	99.3238
Cn1c(=O)c2c(ncn2CCOc2cnc(-c3cnn(Cc4ccccc4)c3)c(N)n2)n(C)c1=O [CBK145193]	85.5598
CCCNc1nccnc1-c1cc(C)c(O)c(C)c1 [CBK037210]	104.042
O=C(OCCC1SC(NC2CC3C=CC2C3)=NC1=O)c1c(F)cccc1F (stereo not shown) [CBK200057T]	90.8518
CC(C)Nc1nc2ccccc2nc1Sc1ccncc1 [CBK115250]	110.273
CCOC(=O)/C(C(=O)c1ccccc1)=C(/N)NCCO [CBK265621]	100.982

SMILES	% of control remaining
Clc1ccccc1-c1nsc(Nc2ccccc2)n1 [CBK016152]	74.7474
COCC(=O)N1CCc2sccc2C1c1ccc(NC(=O)c2ccco2)cc1 (stereo not shown) [CBK286200]	106.714
CC1CC1C(=O)NCCN1CCC(O)(c2cccc(F)c2)CC1 (stereo not shown) [CBK283286]	109.78
O=C(Nc1cccc2c1CCCC2)c1cnc2n(c1=O)CCS2 [CBK287379]	68.9644
Cc1ccccc1-c1ccc(C(=O)Nc2ccc3c(c2)OCO3)c(N2CCN(C(=O)c3ccco3)CC2)n1 [CBK076196]	92.5503
COc1ccccc1CN(Cc1cccnc1)C(=O)c1cnc(C)cn1 [CBK306972]	99.0025
COc1ccc(N2Cc3ccccc3C2=O)cc1OC [CBK113666]	115.727
Oc1ccc(C2N(O)C3CCCCC3N2O)cc1 (stereo not shown) [CBK261715]	108.037
O=C(NCc1ccc2occc2c1)C1(c2ccccc2)CCCC1 [CBK149525]	108.147
Cc1cc2cc(CNc3cc(-c4ccccc4)ccc3O)c(=O)[nH]c2cc1C [CBK286164]	120.941
COc1ccccc1CC(C)NC(=O)c1ccc2nc(C)[nH]c2c1 (stereo not shown) [CBK283261]	91.9794
Cc1cccc(-n2c(C3CCCNC3=O)n[nH]c2=S)c1 (stereo not shown) [CBK012842]	85.9949
Cc1nnc(SCC2=NN(c3nc4ccccc4[nH]3)C(=O)C2)s1 [CBK293979]	83.5589
O=C(COc1ccc2c(c1)OCO2)NCc1ccccn1 [CBK269983]	85.8568
O=C1NC2(Nc3ccccc31)C(=O)N(Cc1cccc3ccccc13)c1ccccc12 (stereo not shown) [CBK264954]	72.716
COc1cc(CNc2ccc3[nH]c(=O)[nH]c3c2)cc(Br)c1OCC(=O)NC(C)(C)C [CBK266596]	79.7134
Cc1ccc2oc(-c3ccc(C)c(NC(=S)NC(=O)c4ccc([N+](=O)[O-])cc4)c3)nc2c1 [CBK263897]	100.217
COc1ccc(CN2C(=S)N(CC3CCCCC3)[C@H]3[C@@H]2[C@H]2OC(=O)[C@@H]3C[C@H]2O)cc1 [CBK288936]	97.2621
CCc1nc2ccc(C(=O)Nc3ccc4c(c3)OCC(=O)N4)cn2c1N(C)CC [CBK145521]	71.9764
CC(=O)Nc1ccc(-c2ccc(=O)n3c2[C@@H]2C[C@@H](CN(C(=O)C(C)(C)C)C2)C3)cc1 [CBK289199]	105.02
COCCN(C(=O)c1cc2cc(C)ccc2s1)C1CCS(=O)(=O)C1 (stereo not shown) [CBK304289]	76.1162
C=CCn1c(Cc2csc(NC(=O)c3ccc(OC)cc3O)n2)n[nH]c1=S [CBK296752]	110.613
Cc1ccc(N2C(=O)N[C@@H]3CCN(S(=O)(=O)c4ccccc4)[C@@H]3C2=O)cc1 [CBK289285]	113.354
O=C1CCC(=O)N1CCN1C(=O)C2(CC(=O)N(Cc3ccccc3)C2=O)c2ccccc21 (stereo not shown) [CBK075705]	124.4
O=S(=O)(O)c1cc(O)c2c(/N=N/c3c(S(=O)(=O)O)cc4cc(S(=O)(=O)O)cc(O)c4c3O)cc(S(=O)(=O)O)cc2c1 [CBK260934]	83.8827
